Out of some 410,000 compounds screened, about 6,400 (1.6%) were called active. Inconclusive means that the source gave no clear call. Such entries were picked first, then a sample of the others. Calls come from the whole dose curve; as a rule, active = well fitted inhibition curve with a large enough effect; inconclusive = small, poorly fitted or top-dose-only effect; inactive = no such curve, though single readings can be large or run the other way. A potency beside an inconclusive call is a rough fit, not a confirmed value.
These compounds were tested against Glucagon-like peptide 1 receptor (Homo sapiens) (UniProt P43220) (assay: qHTS of GLP-1 Receptor Inverse Agonists (Inhibition Mode)). Conditions: HEK293 GLP-1R CRE-luciferase, luminescence, 24 h, GLP-1R form is constitutively active; activity change, negative = inhibition: at 38.3 µM (top of the series) unless noted.
Summary of the method: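 HEK293 cells stably co-expressing constitutively active GLP-1R and a cAMP-responsive luciferase reporter were seeded in DMEM with 10% Nu serum, given compounds after 12 h, and incubated 24 h at 37 deg C. Luminescence was then read.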
% is set by controls: 0 for no effect and ±100 for the full control effect; potency is the fitted concentration of half-maximal effect; tags give direction and shape of the fitted curve.
Note: nearly all actives have a fitted effect of over 55% in size.

Chain of UniProt P43220 (P43220 whole entry, looked up): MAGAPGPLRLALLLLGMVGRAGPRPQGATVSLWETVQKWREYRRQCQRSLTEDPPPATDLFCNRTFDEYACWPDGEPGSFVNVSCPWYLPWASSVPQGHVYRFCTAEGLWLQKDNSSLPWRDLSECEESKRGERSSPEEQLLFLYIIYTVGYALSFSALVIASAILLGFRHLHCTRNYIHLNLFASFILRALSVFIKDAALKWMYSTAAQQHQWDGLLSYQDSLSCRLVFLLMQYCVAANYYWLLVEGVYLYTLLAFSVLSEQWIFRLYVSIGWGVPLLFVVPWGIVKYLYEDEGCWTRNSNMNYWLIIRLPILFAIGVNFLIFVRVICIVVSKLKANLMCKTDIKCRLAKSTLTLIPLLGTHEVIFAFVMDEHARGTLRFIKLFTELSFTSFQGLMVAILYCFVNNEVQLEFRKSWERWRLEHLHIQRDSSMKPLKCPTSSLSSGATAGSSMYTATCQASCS

Potency, inconclusive:
COc1cc2c(cc1OC)CN(c1nc(CN3CCOCC3)nc3sc4c(c13)CCC(C)C4)CC2 (configuration not stated) 1.78 µM [inhibitor, full curve, poor fit]
CC1CCN(C(=O)C(C)Sc2nc(-c3ccccc3)cc(C(F)(F)F)n2)CC1 (configuration not stated) 12.6 µM [inhibitor, single point]
Cc1oc2ccc(O)cc2c1C(=O)c1ccc([N+](=O)[O-])cc1 20 µM [inhibitor, single point]
O=c1[nH][nH]c2c1[C@H](c1ccc(F)cc1)O[C@H](CCc1ccccc1)C2 8.91 µM [inhibitor, partial curve, poor fit]
Cc1[nH]c2ccccc2c1C(=O)C(=O)N1CC=C(c2ccccc2)CC1 11.2 µM [inhibitor, partial curve, poor fit]
O=C(Nc1ccccc1)Nc1ccc(Cl)nc1Cl 14.1 µM [inhibitor, single point]
Cn1c(=O)cc(SCC(=O)N2CCN(c3ccccc3)CC2)c2ccccc21 28.2 µM [inhibitor, single point]
Cc1ccc(NC(=O)N2CCC(O)(c3ccc(Cl)cc3)CC2)cc1 10 µM [inhibitor, partial curve, poor fit]
Cc1cccc(NC(=O)c2cccc3c2-c2ccccc2C3=O)n1 28.2 µM [inhibitor, single point]
CC(C)(C)OC(=O)NCCCC[C@H](NC(=O)c1[nH]cnc1C(=O)Nc1ccc(CNC(=O)OC(C)(C)C)cc1)C(=O)OC(C)(C)C 5.01 µM [inhibitor, full curve, poor fit]
O=C(Cc1cccc2ccccc12)N/N=C/c1ccc(Sc2nc3ccccc3s2)o1 31.6 µM [inhibitor, partial curve, poor fit]
O=C1N(c2ccccc2C(F)(F)F)O[C@@]1(c1ccccc1)C1CCCC1 10 µM [inhibitor, partial curve, poor fit]
CCOC(=O)/C=C1\SCC(=O)N1CC(=O)NC12CC3CC(CC(C3)C1)C2 28.2 µM [inhibitor, single point]
Cc1ccc(C(=O)NC2(C(F)(F)F)N=C(c3ccccc3)N(C3CCCCC3)C2=O)cc1 (configuration not stated) 7.94 µM [inhibitor, partial curve, poor fit]
O=C(Nc1ccc(-c2csc(Nc3ccccc3)n2)cc1)c1cc([N+](=O)[O-])cc(C(F)(F)F)c1 3.98 µM [inhibitor, full curve, poor fit]
CC1CN(C(=S)Nc2cccc(Cl)c2)CC(C)O1 (configuration not stated) 10 µM [inhibitor, single point]
CCn1c(SCc2ccc([N+](=O)[O-])cc2)nnc1C(C)NC(=O)c1ccccc1Br (configuration not stated) 0.501 µM [inhibitor, full curve, poor fit]
CN(CCOc1ccc(Br)cc1)CC(O)c1ccccc1 (configuration not stated) 10 µM [inhibitor, partial curve, poor fit]
COc1ccc(OC)c(S(=O)(=O)NCCOC23CC4CC(CC(C4)C2)C3)c1 2.82 µM [inhibitor, full curve]
CCc1nc2ccc(C(=O)Nc3cc(-c4ccccc4)ccc3OC)cn2c1N(C)Cc1ccc(OC)cc1 28.2 µM [inhibitor, single point]
CC(C)(C)OC(=O)NCCCCCNC(=O)c1[nH]cnc1C(=O)NC1CCN(C(=O)OC(C)(C)C)CC1 28.2 µM [inhibitor, single point]
Cc1cc(C(F)(F)F)cc(NNC(=O)NC(=O)c2ccccc2Cl)n1 22.4 µM [inhibitor, single point]
COc1ccc(/C=C(\C#N)C(=O)NCC(c2ccc(F)cc2)N2CCOCC2)cc1 (configuration not stated) 28.2 µM [inhibitor, single point]
O=[N+]([O-])c1ccc(Cl)cc1NCC1CCCO1 (configuration not stated) 11.2 µM [inhibitor, partial curve, poor fit]
O=C(CCCC(=O)N1CCCc2ccccc21)N1CCCc2ccccc21 7.08 µM [inhibitor, partial curve, poor fit]
CN(CC1COc2ccccc2O1)C(=O)CCNS(=O)(=O)c1ccc(F)c(Cl)c1 (configuration not stated) 11.2 µM [inhibitor, single point]
Cc1ccc(S(=O)(=O)NCC(=O)NCC(=O)N(C)Cc2ccc3ccccc3c2)cc1C 3.55 µM [inhibitor, single point]
CC(CN1CCOCC1)OC(=O)C(c1ccccc1)c1ccccc1 (configuration not stated) 11.2 µM [inhibitor, partial curve, poor fit]
Cc1cccc(NC(=O)c2ccccc2NC(=O)C2CCCCC2)c1C 31.6 µM [inhibitor, partial curve, poor fit]

Activity change, negative = inhibition, inactive:
O=C(O)CCCc1nc(-c2ccc(Cl)cc2)no1 -19.9%
COc1ccc(OC)c(NC(=O)c2c(C)oc3ncnc(N4CCOCC4)c23)c1 -1.87%
Cn1ncc(Cl)c1C(=O)N/N=C/c1ccccn1 6.57%
COc1cc(/C=C2\SC(=S)N(C(C(=O)O)c3ccccc3)C2=O)cc(OC)c1OC (configuration not stated) -3.91%
COc1cccc(C(=O)Nc2ccc(C(=O)OCc3cc(=O)n4nc(C5CC5)sc4n3)cc2)c1 2.25%
Cn1c(CCNC(=O)c2ccccc2Cl)n[nH]c1=S 6.88%
Cc1ccc(CN2CCN(Cc3cccn3-c3ccccn3)CC2CCO)cc1 (configuration not stated) -13.4%
c1ccc(Cn2ncc3ccccc32)cc1 26.1%
Cc1cc(F)ccc1NC(=O)CCSc1nc(-c2ccco2)cc(C(F)(F)F)n1 -14.8%
Cc1ccc(C)c(CNC(=O)c2sc3ncnc(N(C)C4CCCCC4)c3c2C)c1 -11.2%
COc1ccc(-c2cc3ccc(O)c(CN4CCCC4)c3oc2=O)cc1OC 29.4%
CCC(Sc1nnc2c3ccccc3n(C)c2n1)C(=O)Nc1nnc(C(C)C)s1 (configuration not stated) 16.3%
O=c1cccc(-c2ccc3ccccc3c2)o1 14.6%
